# Reference: article PMC12136788
# The list shows a part of the results.
# T1: UNK ZnF1-6 (called full-length) (human, UniProt Q9C0B0 30-357)
# T1 sequence: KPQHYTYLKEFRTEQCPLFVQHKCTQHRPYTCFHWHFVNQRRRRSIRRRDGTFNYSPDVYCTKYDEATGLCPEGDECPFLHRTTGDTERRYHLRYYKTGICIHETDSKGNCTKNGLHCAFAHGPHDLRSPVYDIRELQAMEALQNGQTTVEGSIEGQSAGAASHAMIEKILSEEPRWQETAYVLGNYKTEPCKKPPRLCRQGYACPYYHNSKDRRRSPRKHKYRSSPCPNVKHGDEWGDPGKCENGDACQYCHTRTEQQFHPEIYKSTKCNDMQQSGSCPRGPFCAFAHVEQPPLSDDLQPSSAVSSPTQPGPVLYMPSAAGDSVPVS
# B1: chr12:2800410:2800520:+|CDS|ENSG00000004478|unk|FALSE|unique (ssRNA)
# RNA: GGGAGUUCUACAGUCCGACGAUCAAAUACAAGCAAGCUUUACUACAGUAUAAGAAGAUCGUGUCUUGGCUGGAAUAUGAGUCUAGUUUUUCCAAUGAGGAAGCACAGAAAGCACAGGCCCUUCGACUGGCCUCUCACCUCAACCAACAGAGGAUUGAGCAUCA
# B2: chr3:66417149:66417250:-|CDS|ENSG00000144749|msi1|total|mutant (ssRNA)
# RNA: GGGAGUUCUACAGUCCGACGAUCCAACAAGAUUCGCAGCGUGGAGGGGAGCCAGCUGAAGGCCUACCUUUCCUCCGAAGUGUCCGAUCUGAGUUUGAACAACAUCACGGAAGUGCGGAACACCUGCUUUCCACACGGACCGCCCAACAGAGGAUUGAGCAUCA
# B3: chr5:97028609:97028710:+|3pUTR|ENSG00000113441|msi1|total|mutant (ssRNA)
# RNA: GGGAGUUCUACAGUCCGACGAUCUUGCAAAAGCCAAGGUAAAGCCAGGAUCGCUGCCAAGUUGUUUGCACUCUUUGGAGUUCCCGUCCGCUCAGGGCCUGACUGUAUUUUUCAUCCAUCUUUUCUGAAGUGUCUUUGGGCAGUCAACAGAGGAUUGAGCAUCA
# B4: chr20:25296659:25296760:+|3pUTR|ENSG00000100994|msi1|total|mutant (ssRNA)
# RNA: GGGAGUUCUACAGUCCGACGAUCUGGGGGUCAGGGUGGUUUUGAGAGAGCAGGGUAAGGAAGGAAUGUGCCCGAAGUGCUCCCCGUUUCUUGUAAAGGAAGCCAGAGUUGACAGUACAAAGGGUCGUGGCCAGCCCUGCAGCUCAACAGAGGAUUGAGCAUCA
# B5: chr4:67617988:67618115:-|3pUTR|ENSG00000033178|unk|FALSE|unique (ssRNA)
# RNA: GGGAGUUCUACAGUCCGACGAUCAAAUGUAGAAUGUUAAAAAUUAUUGCUAGGGUAGUCUUUUUUUUUUCCAGAAACCUAAUUAGGGUAUUAAAUUUUGUGUUUUUUUUGUUUUUUUUUUUUAAACAGAAGCAUGUUAUUUCACAACAGAGGAUUGAGCAUCA
# B6: ENSG00000133640:stop:overlap|stop_codon|ENSG00000133640|stop_codon|NA|stop_codon (ssRNA)
# RNA: GGGAGUUCUACAGUCCGACGAUCAGGCACACAGACACUCAGCAGGAUCUUCAAGUAAGUUGUGGUUUCCUUCAAAAUUAAUUUAGAAAUCACAAACGAAUUGAUGGAACCUAAUGCCAACAAGCAUUCUUUUUCAGAUAGGGGCAACAGAGGAUUGAGCAUCA
# B7: ENSG00000083457:stop:overlap|stop_codon|ENSG00000083457|stop_codon|NA|stop_codon (ssRNA)
# RNA: GGGAGUUCUACAGUCCGACGAUCACUUGGAGAGCAUCAGGAAGGCCCAGCUGAAAUCAGAGAAUCUGCUCGAAGAAGAGAAUUAGGACCUGCUAUCCACUGGGAGAGGCUAUCAGCCAGUCCUGGGACUUGGAGACCCAGCAUCAACAGAGGAUUGAGCAUCA
# B8: chr5:154419581:154419682:+|3pUTR|ENSG00000164574|msi1|total|mutant (ssRNA)
# RNA: GGGAGUUCUACAGUCCGACGAUCAAAGGGAUGGGUGUGUCCUCUGAGCACUCUGGCAUUUGUCAUUGCUGAGCCCAUAUCAGCCGGUCCUGGGACUUGACAAAGUAUGUGGGAGGGGAAGGAAGGACAGAACUUGACUGGCUCCAACAGAGGAUUGAGCAUCA
# B9: chr7:41961162:41961264:-|3pUTR|ENSG00000106571|unk|FALSE|bound_elsewhere (ssRNA)
# RNA: GGGAGUUCUACAGUCCGACGAUCCCCUUGUGUAUCCUGCAGACAUGUAAAAUAAAAUACAAGUUCAUUUUUUUCACCUUUUUUAGAUUUUUUUAAAAAAUAAAAUGUGUAAUCCUUUUUUUAAAAGAAACACAUGUAAAUACACAACAGAGGAUUGAGCAUCA
# B10: chr1:42278343:42278454:-|CDS|ENSG00000198815|unk|FALSE|bound_elsewhere (ssRNA)
# RNA: GGGAGUUCUACAGUCCGACGAUCAAAAAGAAAAUGACUUUAAGUGAAAUUUAUCAGUGGAUUUGUGAUAACUUCCCAUAUUAUAGAGAGGCUGGCAGUGGUUGGAAGGUAAGGAUUUUAUUUAAAUUAUUACUUUUAUGAAGUCAACAGAGGAUUGAGCAUCA
# B11: ENSG00000070961:be:win_2201|CDS|ENSG00000070961|bound_else_gene|NA|bound_elsewhere_windowed (ssRNA)
# RNA: GGGAGUUCUACAGUCCGACGAUCUAGAAGGUAAAGAUUUUAACAGAAGAAUACGAAAUGAAAAAGGAGAGAUUGAGCAAGAGAGGAUAGACAAGAUUUGGCCAAAACUUCGAGUACUUGCAAGAUCAUCUCCUACUGAUAAGCCAACAGAGGAUUGAGCAUCA
# B12: chr11:46542767:46542868:-|CDS|ENSG00000110497|msi1|FALSE|unique (ssRNA)
# RNA: GGGAGUUCUACAGUCCGACGAUCAACACGCUCCGCAACCUCAGUCUGGGUCCUACCCGCCGCUCUUUGGGAGGGCCUCUGUCUAGCCACCCUUCUAGGUAUCACCGAGAAAUAGCUCCUGGGUUGACAGGAUCUGAGUGGACCCAACAGAGGAUUGAGCAUCA
# B13: chr1:180885099:180885158:+|3pUTR|ENSG00000143324|msi1_unk|FALSE|overlapping (ssRNA)
# RNA: GGGAGUUCUACAGUCCGACGAUCAGCUGAAGCUAUGCCUUAUUAUGCAUCCACAUGUAUGGUCCCUGUAGCGUGACCUUUACUAGCUCUGAAUCAGAAGACAGAGCUAUUUCAGAGGCUCUGUGUGCCCUCACUAGAUAGUUUCAACAGAGGAUUGAGCAUCA
# B14: chr8:37861146:37861251:-|3pUTR|ENSG00000156675|unk|FALSE|unique (ssRNA)
# RNA: GGGAGUUCUACAGUCCGACGAUCCUGUGCAGAGCAAGAAGAUGAUACUUAUUUUUGAAUUUGUAUUUUUAAAACUAGAUUUAUAGACUUUUUUUUUUUUUAACUAGGGCACUUGCUUCCUUCUUAGCUAAAAGCACCAGCUGACAACAGAGGAUUGAGCAUCA
# B15: chr2:89268000:89268296:-|CDS|ENSG00000242076|control|control|control (ssRNA)
# RNA: GGGAGUUCUACAGUCCGACGAUCUCCCUGUCUGCAUCUGUAGGAGACAGAGUCACCAUCACUUGCCAGGCGAGUCAGGACAUUAGCAACUAUUUAAAUUGGUAUCAGCAGAAACCAGGGAAAGCCCCUAAGCUCCUGAUCUACCAACAGAGGAUUGAGCAUCA
# B16: chr7:111727939:111728040:-|3pUTR|ENSG00000128512|unk|FALSE|unique (ssRNA)
# RNA: GGGAGUUCUACAGUCCGACGAUCAAGUGGUAAAUAGUGAUAAAGACUCCUUUUGUACCUUUUUAUGUUCACUUUUUUUUAUAUAGUUUAAUCUUAAAACCAAUACGAUAUUGUCAAACGAUACAAUGUGUGACAAUGUUGUAUCAACAGAGGAUUGAGCAUCA
# B17: chr15:52547342:52547511:-|3pUTR|ENSG00000128989|msi1|total|mutant (ssRNA)
# RNA: GGGAGUUCUACAGUCCGACGAUCAACAUAUUUAAUAUUAUGCCCUUGGAUCUGUUACUGCAUCACCCGCACUUGUGAUGCAACCGAACACUUCGCCUGUACUGAAAGGGCCAAGAGUAAAUGCCUUGUUUUGUUUUUUUGUUUCAACAGAGGAUUGAGCAUCA
# B18: chr7:98206920:98207021:+|3pUTR|ENSG00000164715|unk|total|mutant (ssRNA)
# RNA: GGGAGUUCUACAGUCCGACGAUCGUUCUGCAUUAAGCCCCAGGUUCUCUUCUGGCUUUGAAAGGGCCCGAGUGCUCCCAGUGCCGCUUCGUCACAUCGUCACGAGCCCCUGUGGUCAUGGGCGACCUCACACCUCCCUCCCUGCAACAGAGGAUUGAGCAUCA
# B19: ENSG00000136451:be:win_1751|3pUTR|ENSG00000136451|bound_else_gene|NA|bound_elsewhere_windowed (ssRNA)
# RNA: GGGAGUUCUACAGUCCGACGAUCUCACUGGACCACUUUAGUUUAAUCAGAAAUUCCUUUUAGCUGACAACAUUGCUUAAACAGGAUAGUAGUUGGCAAGAUGAAAUGCCAGAAUUAAAACCAAUCAUAAGUAGAACCCACUUCCAACAGAGGAUUGAGCAUCA
# B20: chr1:211748167:211748268:-|3pUTR|ENSG00000123684|msi1|FALSE|unique (ssRNA)
# RNA: GGGAGUUCUACAGUCCGACGAUCGUACUGCAUCAGUGAGAUGAGUAGGGUUUUUGUUUGGGAUUGUAAGACUAUUAAGAUCCUAGUAAGUCAGUGGUAGUUUACUGUGAUGUGAGCAUUGUAGAUUCCCCCGUUGUCACUAAUCAACAGAGGAUUGAGCAUCA
# B21: chr16:23068607:23068708:-|CDS|ENSG00000103404|msi1|total|mutant (ssRNA)
# RNA: GGGAGUUCUACAGUCCGACGAUCCCUGCCACAAGGAGCCCUUUCCCACCUGGGAAGAGCAGGACUUCAGACCACAGCUUGAGCCGAGAGGGCUCCAGACAAAGCUUGGGUUCUGACAGAGCCAGCGCCACCUCCACCUCCAAACAACAGAGGAUUGAGCAUCA
# B22: chr11:118750849:118750950:-|3pUTR|ENSG00000110367|msi1|FALSE|unique (ssRNA)
# RNA: GGGAGUUCUACAGUCCGACGAUCAUUCUAGAAAGUACUUUGGCCUCGUGCUGUAGAGAGCAGAUUUCUAUGGUACCCUGUGUUAGUAAAGGGGCCCAGAAAUCUGGGAUGUACUGUUUGCUGCCACACUGUCUCAUCUAGUACCAACAGAGGAUUGAGCAUCA
# Target: T1, UNK ZnF1-6 (called full-length)
# Experiment: nsRBNS (natural sequence RNA bind-n-seq); RBNS binding buffer (assumed for nsRBNS): 25 mM Tris pH 7.5, 150 mM KCl, 3 mM MgCl2, 0.01% Triton X-100, 500 ug/ml BSA, 20 U/ml SUPERase-In, 4 C; UNK is unkempt and MSI1 is Musashi-1; names of the RNAs are library labels; protein concentration not given here; high values mean tight binding
row,Binder,binding signal
1,B1,0.654 enrichment R
2,B2,0.568 enrichment R
3,B3,0.508 enrichment R
4,B4,1.27 enrichment R
5,B5,28.1 enrichment R
6,B6,0.515 enrichment R
7,B7,1.06 enrichment R
8,B8,0.858 enrichment R
9,B9,2.99 enrichment R
10,B10,3.38 enrichment R
11,B11,0.581 enrichment R
12,B12,0.989 enrichment R
13,B13,2.64 enrichment R
14,B14,53.1 enrichment R
15,B15,2.55 enrichment R
16,B16,21.5 enrichment R
17,B17,0.51 enrichment R
18,B18,1.32 enrichment R
19,B19,3.27 enrichment R
20,B20,0.481 enrichment R
21,B21,0.71 enrichment R
22,B22,0.975 enrichment R
